# Laboratory results as given in PubChem BioAssay AID1963576 (National Center for Advancing Translational Sciences (NCATS), 2024).
# Out of some 46,000 compounds screened, about 60 (0.1%) were called active. Inconclusive results (about 3%) are left out. The call rests on the fitted dose curve; in most records, active means well fitted inhibition curve with a large enough effect; inconclusive means small, poorly fitted or top-dose-only effect; inactive means no such curve, though single readings can be large or run the other way. This is one part of the list.
# Assay: Primary qHTS assay for Inhibitors of ovarian cancer metastasis using an organotypic tumor microenvironment (TME) model. Further: nearly all actives have a fitted effect of over 65% in size.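 On activity change, negative = inhibition: plate controls were DMSO wells for no effect and tomatine positive control wells for full effect.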
# Conditions: SKOV3ip1-GFP adhesion/invasion on 3D omental model, fluorescence; series mostly up to 45.8 µM; activity change, negative = inhibition: at the top concentration
# Summary of the method: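 Adhesion/invasion was scored as fixed GFP-labeled SKOV3ip1 cell counts (488/509 nm), normalized to DMSO and tomatine controls. Cancer cells in serum-free medium, with four compound doses (0.36-46 umol/L), sat 2 hr at RT then 16 hr at 37 C on a 48 hr fibroblast/mesothelial/ECM culture.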
Structure (SMILES),outcome,"activity change, negative = inhibition"
Cc1ccc(-c2nc(CCNC(=O)C(=O)Nc3ccc(C)c(Cl)c3)cs2)cc1,inactive,–
N#Cc1cccc(NC(=O)C2CCN(S(=O)(=O)c3ccc4c(c3)CCCN4C(=O)C3CCC3)CC2)c1,–,inactive: 2.46%
CCCN(CCC)C(=O)Cn1c(SCc2cccc(F)c2)nc2cccnc21,–,inactive: -1.29%
CCOc1ccccc1NC(=O)CSc1nc2cc(OC)c(OC)cc2c2nc(CCn3c(C)nc4ccccc43)nn12,–,inactive: -3.99%
COc1ccc(C2(N3CCN(c4cc(C)ccc4C)CC3)C(=O)c3ccccc3C2=O)cc1,–,inactive: 7.11%
Cc1ccc(CNC(=O)c2cc3c(=O)n4cccc(C)c4nc3s2)cc1,–,inactive: 12.3%
Cc1ccc2oc(C(=O)NCC(c3ccc(Cl)cc3)N3CCOCC3)c(C)c2c1 (stereo unspecified),–,inactive: -6.15%
Cc1nc(-c2ccc(F)cc2)sc1CCNC(=O)c1ccccc1C(F)(F)F,–,inactive: -19.4%
Cc1ccc(S(N)(=O)=O)cc1NC(=O)c1c(-c2c(Cl)cccc2Cl)noc1C,–,inactive: -1.04%
Cc1cccc(CSc2ncc(Cl)c(C(=O)Nc3nnc(C)s3)n2)c1,inactive,–
CC1=C(C(=O)Nc2ccccc2C)C(c2sccc2C)n2ncnc2N1 (stereo unspecified),inactive,–
Cc1ccc(CNC(=O)CN2C(=O)C3CCCCN3c3ccc(C(=O)N(C)C)cc32)cc1 (stereo unspecified),–,inactive: 6.68%
COc1ccccc1NC(=O)CN1C(=O)C(C)(C)c2ccccc21,–,inactive: 0.761%
CCOc1ccc(-c2cc(NC(=O)Nc3ccccc3Cl)c(C(=O)OC)s2)cc1,inactive,–
N#Cc1c(C(F)(F)F)cc(-c2cccs2)nc1SCC(=O)Nc1cccc(Br)c1,–,inactive: -0.389%
Cc1ccc(C(=O)N2CCN(c3ccccc3)CC2)cc1NC(=O)c1nsc2ccccc12,–,inactive: 2.84%
Cc1ccc(-c2nnc(Nc3ccc(F)cc3)c3ccccc23)cc1S(=O)(=O)NC(C)C,–,inactive: -0.44%
CCc1nnc2c(NCc3ccccc3)nc3ccccc3n12,–,inactive: -6.8%
Cc1ccccc1CSc1nc2c([nH]c3ccccc32)c(=O)n1-c1ccccc1,–,inactive: -5.69%
Cc1ccc(/C=C/c2onc(C)c2S(=O)(=O)N2CCC(C(=O)Nc3cccc(C#N)c3)CC2)cc1,inactive,–
CCN(CC)CCNC(=O)CN1C(=O)CSc2ccc(S(=O)(=O)N3CCOCC3)cc21,–,inactive: 7.71%

Structure (SMILES),outcome,"activity change, negative = inhibition"
CCOC(=O)COc1ccc(CC)cc1C(=O)c1ccn2nc(-c3ccc(C)cc3)cc2n1,inactive,–
Cc1cccc(-c2nnc(SCC(=O)Nc3ccc(C)c(C)c3)o2)c1,–,inactive: 1.77%
Cn1c(-c2cccc(Br)c2)cnc1NCc1cccc(F)c1,–,inactive: -1.06%
CCc1ccccc1NC(=O)c1nc2nc(C)cc(C(F)F)n2n1,inactive,–
CCN(CC)S(=O)(=O)c1ccc2c(c1)c(=O)c(C(=O)N1CCN(c3ccc(OC)cc3)CC1)cn2C,–,inactive: 6.46%
Cc1ccc(CNC(=O)CN2N=C(c3ccc(C)cc3)CCC2=O)cc1,–,inactive: -3.61%
CCCN(CCC)CCCNC(=O)Cn1ncn2c(cc3sc(CC)cc32)c1=O,–,inactive: 8.98%
CC(C)c1ccc(NC(=O)C2CCCN(S(=O)(=O)c3ccc4[nH]c(=O)oc4c3)C2)cc1 (stereo unspecified),–,inactive: -0.177%
COc1cc(SC)ccc1C(=O)N1CCn2c3c(c4cc(C)ccc42)CCCC31 (stereo unspecified),–,inactive: 8.97%
COc1ccc(Nc2nnc(-c3cc4cc(Cl)ccc4oc3=O)s2)cc1,–,inactive: 2.83%
CCC(C)NC(=O)c1ccc(Cn2c(=O)c3cccn3c3cccnc32)cc1 (stereo unspecified),–,inactive: -0.86%
COc1cccc(CN2C(=O)c3ccccc3C2C(=O)NCCc2ccccc2)c1 (stereo unspecified),inactive,–
CCCS(=O)(=O)c1c(S(=O)(=O)CCC)c2cc(C(C)(C)C)ccn2c1C(=O)c1ccc(C)cc1,inactive,–
CCOc1ccc(CNC(=O)Cn2nc(N3CCN(c4ccccc4)CC3)ccc2=O)cc1,–,inactive: -3.23%
Oc1c(C(c2cccc(Br)c2)N2CCCC2)sc2nc(-c3ccco3)nn12 (stereo unspecified),–,inactive: 0.821%
O=C(CCCCCn1c(=O)[nH]c2ccsc2c1=O)NCc1ccccc1,–,inactive: -5.54%
Cc1ccc(C)c(N2CCN(C(=O)CCc3c(C)nn(-c4ccc(N5CCCC5)nn4)c3C)CC2)c1,–,inactive: 9.02%
Cc1ccc(C(=O)Nc2c(C)nc3ccccn3c2=O)cc1,–,inactive: 5.39%
O=C(NCc1ccc(Cl)cc1)C1CCN(C(=O)c2cnn(-c3ccccc3)c2-n2cccc2)CC1,inactive,–
COc1ccccc1CNC(=O)CSc1nc2nc(C)c(Cc3ccccc3C)c(C)n2n1,–,inactive: -12.9%
CCOC(=O)c1c(C)[nH]c(C)c1S(=O)(=O)N(C)CC(=O)N1CCN(c2cccc(C)c2C)CC1,inactive,–

Structure (SMILES),outcome,"activity change, negative = inhibition"
Cc1cccc(N2C(=O)C(CC(=O)Nc3ccccc3)N(C3CCCCC3)C2=O)c1 (stereo unspecified),–,inactive: -5.43%
COc1cccc(C(=O)Nc2nc3nc(C)c(Cc4ccccc4)c(=O)n3[nH]2)c1,inactive,–
Cc1nn(C)c2c1c(-c1ccccc1)cc(=O)n2Cc1ccc(Br)cc1F,inactive,–
CCOC(=O)c1c(C)oc2nc(C)nc(NCCCN3CCN(c4ccccc4OC)CC3)c12,–,inactive: -8.2%
COC(=O)c1ccc(NC(=O)CC2C(=O)N(c3cccc(C)c3)C(=O)N2Cc2ccco2)cc1 (stereo unspecified),–,inactive: -5.01%
COc1ccccc1C(=O)Nc1ccccc1C(=O)OCc1cc(=O)n2c(C)csc2n1,inactive,–
CCCC(=O)c1cc2c(cc1NC(=O)c1ccccc1F)OCCO2,–,inactive: -4.51%
Cc1ccc(CNC(=O)CCCn2c(=O)c3ccccc3n(Cc3ccccc3Cl)c2=O)cc1,–,inactive: -6.89%
CCCCOc1ccc(NC(=O)c2cc3c(n(-c4ccc(Cl)cc4)c2=O)CCCC3=O)cc1,–,inactive: 0.925%
COc1ccc(-c2cc(C(F)(F)F)nc(SCC(=O)N3CCCCC3)n2)cc1,–,inactive: -9.04%
O=C(c1cccc([N+](=O)[O-])c1)N1c2nc(-c3ccco3)nn2C2(CCCCC2)[C@@H]2CCCC[C@@H]21,–,inactive: 9.83%
Cc1ccc(OCC(=O)N(Cc2ccc(N(C)C)cc2)CC2CCCO2)cc1C (stereo unspecified),–,inactive: -8.81%
CCCN1CCN(CCNC(=O)Nc2cc(Cl)c(OC)cc2OC)CC1,–,inactive: 2.46%
Cc1cc(C)c(-c2csc(-c3cc4ccccc4oc3=O)n2)cc1C,–,inactive: -6.22%
CC(=O)Nc1ccc(NC(=O)CC(C)n2ccc(C)n2)cc1 (stereo unspecified),–,inactive: 21.9%
O=S(=O)(NCCc1csc2nc(-c3ccc(F)cc3)nn12)c1ccc2c(c1)OCCO2,inactive,–
Cc1nn2c3c(cnc2c1-c1ccc(F)cc1)C(=O)CC(c1ccccc1)C3 (stereo unspecified),inactive,–
Cc1cc(C(=O)Nc2cccc(C(F)(F)F)c2)c2c(C)nn(-c3cccc(F)c3)c2n1,–,inactive: -1.06%
O=C(Cn1c(=O)n(CCCS(=O)(=O)C2CCCCC2)c(=O)c2ccccc21)Nc1ccccc1F,–,inactive: 1.99%
